Assay results: PubChem BioAssay AID686979 (National Center for Advancing Translational Sciences (NCATS), 2013)
The whole screen tested about 420,000 compounds, of which about 50,000 (12%) were called active. The shares of active, inactive and inconclusive entries below differ from those in the screen. Calls come from the whole dose curve; as a rule, active = well fitted inhibition curve with a large enough effect; inconclusive = small, poorly fitted or top-dose-only effect; inactive = flat fitted curve, though single readings scatter. Potencies of inconclusive entries are left out as doubtful fits.

Test: qHTS for Inhibitors of human tyrosyl-DNA phosphodiesterase 1 (TDP1): qHTS in cells in presence of CPT; note: nearly all actives have a fitted effect of over 55% in size
Conditions: chicken DT40 Tdp1-/-;hTDP1 cells + 20 nM CPT, ATP luminescence, 48 h; activity change, negative = growth inhibition: at 46.2 µM (top of the series) unless noted
How it was run: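 Chicken DT40 Tdp1-/- cells complemented with human TDP1, 400 cells/well, exposed to compounds plus 20 nM camptothecin for at least 48 h at 37 C; viability read as ATP content by CellTiter-Glo luminescence.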
% is set by controls: 0 for no effect and ±100 for the full control effect; potency is the fitted concentration of half-maximal effect; tags give direction and shape of the fitted curve.

SMILES | Potency | activity change, negative = growth inhibition
O=c1[nH]c2cc(C(F)(F)F)ccc2n1-c1cc(C(F)(F)F)ccc1O | inconclusive [inhibitor, single point] | –
Cc1cc(C)c2cc(CN(CCO)Cc3nnnn3Cc3ccccc3)c(=O)[nH]c2c1 | inconclusive [inhibitor, single point] | –
O=c1/c(=C/c2ccc([N+](=O)[O-])cc2)sc2n1CCCN=2 | active: 25.9 µM | –
COc1ccc(N(C(=O)c2ccccc2C)S(=O)(=O)c2ccc3c(c2)n(C)c(=O)n3C)cc1 | inactive | –
COc1ccc(C(=O)CC(=O)c2ccccc2O)cc1 | inconclusive [inhibitor, single point] | –
CC(C)OC(=O)C(C(=O)C(F)(F)F)c1cc(NS(=O)(=O)c2ccc3ccccc3c2)c2ccccc2c1O (stereo not given) | active: 23.1 µM | –
Cc1ccc(OCC(O)CN2CCN(CC(O)COc3ccc(C)cc3)CC2)cc1 (stereo not given) | inactive | –
COc1ccc(C2=CSC3=NCCN23)cc1F | inactive | –
Cc1[nH]c2ccc(C(=O)N3CCN(C)CC3)cc2c1C | inactive | –
Cc1cccn2c(=O)c3cc(C#N)c(=O)n(-c4c(C)n(C)n(-c5ccccc5)c4=O)c3nc12 | inconclusive [inhibitor, partial curve] | –
O=C(Nc1cccc(F)c1)N1CCC2(CC1)CCN(S(=O)(=O)c1ccccc1)CC2 | inactive | –
O=C(COc1ccc(Cl)cc1Cl)N(C1CCCCC1)C1CCS(=O)(=O)C1 (stereo not given) | inactive | –
O=C(Nc1ccc2c(c1)OCCO2)c1coc2ccccc2c1=O | inactive | –
CCOC(=O)C1=C(CNCc2ccccc2)NC(=O)NC1c1ccc(C)cc1 (stereo not given) | inconclusive [inhibitor, single point] | –
Cc1ccc(S(=O)(=O)N2CCCc3cc(NC(=O)c4ccc(C(F)(F)F)cc4)ccc32)cc1 | inconclusive [inhibitor, single point] | –
CCOC(=O)c1ccccc1NC(=O)COC(=O)C(Cc1c[nH]c2ccccc12)NC(C)=O (stereo not given) | – | inconclusive: -35.2% [inhibitor]
COc1cc(/C(C)=N/NC(=S)NC(C)C)cc(OC)c1OC | active: 1.3 µM | –
CC(=O)c1c(C)c(C)c2n1CCn1c(C)ccc1-2 | inconclusive [inhibitor, single point] | –
CCc1nc2ccc(C(=O)NCc3ccc(C)o3)cc2nc1CC | inconclusive [inhibitor, partial curve] | –
CNc1oc(-c2ccc(Cl)cc2)nc1C#N | inactive | –
CCCCn1c(N)c(N(CC(C)C)C(=O)CCNC(=O)c2ccc(Cl)cc2)c(=O)[nH]c1=O | inactive | –
NC(=O)NN=C1CC2CC1C1C=CCC21 (stereo not given) | inactive | –
CCCn1c2ccccc2c2cnn(CC(=O)N(CC)CC)c(=O)c21 | inconclusive [inhibitor, single point] | –
Cc1ccc(NC(=O)c2ccc(OC(F)(F)F)cc2)cc1S(=O)(=O)N(C)C | inconclusive [inhibitor, partial curve] | –

SMILES | Potency | activity change, negative = growth inhibition
COc1ccc(C2=CC(=O)C[C@H](c3ccc(F)cc3)C2)cc1F | active: 20.6 µM | –
COc1ccc(C2C(C#N)=C(N)N(c3ccccc3C#N)C3=C2C(=O)CCC3)cc1CN1CCCC1 (stereo not given) | inconclusive [inhibitor, single point] | –
C[C@H]1CN([C@@H](C)CO)S(=O)(=O)c2ccc(C#Cc3cccnc3)cc2O[C@@H]1CN(C)C(=O)Nc1ccc2c(c1)OCO2 | inconclusive [inhibitor, single point] | –
O=C1CSC(=S)N1/N=C/c1ccc(C(F)(F)F)cc1 | inconclusive [inhibitor, full curve, poor fit] | –
COc1ccc(CN(C)C(C)C(=O)NC2CCCc3ccccc32)cc1 (stereo not given) | inconclusive [inhibitor, single point] | –
Cc1ccccc1OCC(=O)Nc1sc(C(=O)Nc2cccc(C)c2C)c(C)c1C#N | inconclusive [inhibitor, single point] | –
CC1(C)CC(=O)C(C(c2cc([N+](=O)[O-])ccc2Cl)C2C(=O)CC(C)(C)CC2=O)C(=O)C1 | inconclusive [inhibitor, single point] | –
CN(C)C(=O)CCc1ccc2c3c([nH]c2c1)[C@]1(C)[C@@H](C(=O)N2CCCCC2)C[C@H](CC(=O)NCc2ccco2)C(=O)N1CC3 | inactive | –
O=C(COC(=O)C12CC3CC(CC(Br)(C3)C1)C2)Nc1ccc2[nH]c(=O)[nH]c2c1 | inactive | –
Cc1nnc(SC(C)C(=O)Nc2ncc(Cl)cc2Cl)n1Cc1ccccc1 (stereo not given) | inactive | –
Cc1ccc(C)c(NC(=O)C2CCN(C(=O)c3cccs3)CC2)c1 | inactive | –
O=C(Nc1cccc2nsnc12)c1cc2c(cc1Cl)Sc1nccn1S2(=O)=O | active: 23.1 µM | –
COc1ccccc1-n1c2nc3ccccc3nc2c2c(=O)n(-c3cc(C)cc(C)c3)cnc21 | active: 3.66 µM | –
Cc1ccc(CN(Cc2ccco2)C(=O)c2ccco2)cc1 | inconclusive [inhibitor, partial curve] | –
CC(=O)N1c2ccccc2NC2=C(C(=O)CCC2)C1c1ccco1 (stereo not given) | inconclusive [inhibitor, single point] | –
Cn1cc(S(=O)(=O)Nc2ccc3c(c2)OCCO3)cn1 | inactive | –
Cc1ccc(S(=O)(=O)N(C)c2ccc(OC(C)C(=O)N3CCCC3)cc2)cc1C (stereo not given) | inconclusive [inhibitor, single point] | –
Cc1[nH]c(C)c(S(=O)(=O)N2CCN(c3cccc(C(F)(F)F)c3)CC2)c1C(=O)N1CCCCC1 | active: 14.6 µM | –
Cc1ccc(C(C)C)c(OCC(=O)Nc2c(C(=O)c3ccc(F)cc3)oc3ccccc23)c1 | inactive | –
COc1cc(OC)c(C2C=C(c3ccc(C)cc3)Nc3c(C(=O)Nc4ccccc4)cnn32)cc1OC (stereo not given) | inconclusive [inhibitor, single point] | –
O=C(Cn1ncc2c3ccccc3n(Cc3ccccc3)c2c1=O)NCCCN1CCCC1=O | inconclusive [inhibitor, single point] | –
CCCn1c(N)c(C(=O)COC(=O)/C=C/c2ccc(OC(F)F)c(OC)c2)c(=O)[nH]c1=O | inactive | –
COc1ccc(-c2cc(C(=O)N(C)Cc3ccccc3F)c3ccccc3n2)cc1OC | inconclusive [inhibitor, single point] | –
COC(=O)C1=C(C)NC(=O)NC1c1cn(-c2ccccc2)nc1-c1ccc(OC)c(Cl)c1 (stereo not given) | inconclusive [inhibitor, single point] | –

SMILES | Potency | activity change, negative = growth inhibition
CCCc1ccc(-c2cc(C(=O)NN3CCOCC3)c3ccccc3n2)cc1 | inconclusive [inhibitor, full curve, poor fit] | –
CCn1nc(C)c(CNC(=O)C2CCC(=O)N(CCc3ccc(Cl)cc3)C2)c1C (stereo not given) | inactive | –
O=C(/C=C/c1ccccc1)c1ccc2c3c(cccc13)CC2 | inconclusive [inhibitor, single point] | –
Cc1ccc(NC(=O)c2ccc3c(=O)n4nc(Nc5ccccc5C)sc4nc3c2)cc1C | active: 2.91 µM | –
O=C(OCc1ccco1)c1cccnc1 | inconclusive [inhibitor, single point] | –
CCc1ccc(C2N3CC4(C)CN2CC(c2ccccc2)(C3)C4=O)cc1 (stereo not given) | inconclusive [inhibitor, single point] | –
Cc1ccc(/C=C2/SC(=S)N(c3ccc(S(=O)(=O)Nc4nccs4)cc3)C2=O)cc1 | inconclusive [inhibitor, single point] | –
Cc1c2cnn(CC(=O)N3CCCCC3)c(=O)c2c(C)n1Cc1ccc(Cl)cc1 | active: 23.1 µM | –
O=C(COC(=O)c1ccccc1Nc1ccc(SC(F)F)cc1)NCc1ccco1 | inactive | –
O=S1(=O)C=C(SCc2ccccc2)Nc2ccccc21 | inactive | –
O=C(Nc1cccc(S(=O)(=O)N2CCCCC2)c1)c1cncc(Br)c1 | inconclusive [inhibitor, single point] | –
CCOC(=O)C(C)NC(=O)c1cc2c(=O)[nH]c3ccc(C)cc3c2s1 (stereo not given) | inconclusive [inhibitor, single point] | –
COc1ccc(/C=C/C(=O)Nc2ccccc2C(=O)N2CCCC2)cc1 | inactive | –
O=C(NCCc1ccc(Cl)cc1)c1ccc2c(c1)N(Cc1ccc(F)cc1Cl)C(=O)CS2 | inconclusive [inhibitor, single point] | –
COCCNc1nc2cc(-c3cccc(C(F)(F)F)c3)sc2c(=O)n1C | inconclusive [inhibitor, full curve, poor fit] | –
CC(C)CCCC(C)N (stereo not given) | inactive | –
CCc1c(C)nc2c(-c3ccccc3)c[nH]n2c1=O | inconclusive [inhibitor, single point] | –
CN(C)C(=O)CCC(=O)N1CCCC(C(=O)c2ccc3c4c(cccc24)CC3)C1 (stereo not given) | inconclusive [inhibitor, single point] | –
COc1ccc2c(c1)-c1nc(-n3ncc(C(=O)N(C)CC4CCCN(C)C4)c3C)ncc1CC2 (stereo not given) | inconclusive [inhibitor, single point] | –
CC(NC(=O)c1ccc(N2Cc3ccccc3Oc3ncccc32)s1)c1ccccc1 (stereo not given) | inactive | –
CCc1nccn1-c1cc(C(C)(C)C)nc2c(-c3ccc(Cl)cc3)cnn12 | inconclusive [inhibitor, single point] | –
COc1ccc(N2CCN(C(=O)COC(=O)c3ccc(-n4nc(C)cc4C)cc3)CC2)cc1 | inconclusive [inhibitor, single point] | –
